# The RNAGym collection of RNA variant scans (doi:10.1073/pnas.2313332121)
# Variants at the background level are over-represented here.
# B1: TPR 5TU (parent)
# chain: GGAUCUUCUCGAUCUAACAAAAAAGACAAAUCUGCCACAAAGCUUGAGAGCAUCUUCGGAUGCAGAGGCGGCAGCCUUCGGUGGCGCGAUAGCGCCAACGUUCUCAACUAUGACACGCAAAACGCGUGCUCCGUUGAAUGGAGUUUAUCAUG
# Variants of: B1
# Experiment: polymerase ribozyme fitness, log enrichment relative to wild type (log ratio); higher = more active; in vitro selection for triplet polymerase activity
# How it was run: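 A single round of triplicate in vitro selection, including frozen incubation at −7 °C, was applied to PCR-built, transcribed mutant libraries of each subunit of a heterodimeric triplet polymerase ribozyme. Illumina sequencing of input and output libraries retained genotypes with ≥10 input reads and ≥1 read per output. Fitness is the base-2 logarithm of genotype enrichment divided by wild-type enrichment, from inverse-variance-weighted replicate averages.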
row,Variant,polymerase ribozyme fitness (log ratio)
1,C51G G80U G94U,≤ -4.2
2,C51G A52G U53A U56G C57G G86U C96G,≤ -4.2
3,C51G G84A C95G A119G,-2.85
4,G50C C87U C123A C125G,-3.47
5,C51A G140U,-4.11
6,G50C A60G G67A U148C,≤ -4.2
7,C51U C95U,-1.69
8,C51U C95G,-1.68
9,A49G U56G G83C,-2.85
10,G50U G59U A89G C93A U101G U151C,≤ -4.2
11,G50A A89U C99U,-2.94
12,C51U G92U,-1.86
13,C51A U53C G80C U82G C93A G100A G133A,≤ -4.2
14,G50C G92A C96G G124A,≤ -4.2
15,A49U C75U C85G,≤ -4.2
16,G50C U53G C125A G126C,≤ -4.2
17,A49G C87G G88A C125A,≤ -4.2
18,G50A C76U C96A A121G,-1.1
19,C51A C96A A115G A137U,≤ -4.2
20,G50U U55A A66G C95U C103A A138U,≤ -4.2
21,G50C C85G G133A,≤ -4.2

row,Variant,polymerase ribozyme fitness (log ratio)
1,C51A G62U A66U,≤ -4.2
2,C51A A91G C116A U139A,≤ -4.2
3,C51U C87G U104A U139C,≤ -4.2
4,G50A C87U A97U,-3.34
5,G50C G58U,-1.88
6,C51A C57U G59U G100C A119U A122U U145G,-4.13
7,G50C G59U C93U C95G U102G U135A,≤ -4.2
8,A49C U144C,≤ -4.2
9,A49G A60U,-1.62
10,G50C G58C G83A G140A A142U,≤ -4.2
11,A49U C103G,≤ -4.2
12,G50A C85U C105U U134G A147G U151C,≤ -4.2
13,G50A C72U G84U C131A,≤ -4.2
14,C51U A64U C96U A106U A115G,≤ -4.2
15,G50C U53A C57G A73G C93A C95A U101G A107G A138C U144C,≤ -4.2
16,G50C A52U U102G U135C,≤ -4.2
17,A49C U61C G84A C108A U111G,≤ -4.2
18,C51U C85U C96G A119C G141A,-2.65
19,G50C C93A,≤ -4.2
20,G50C C93U,-4.15
21,G50U C76A G86A A89C C108A U146C,≤ -4.2

row,Variant,polymerase ribozyme fitness (log ratio)
1,G50A C51G C79A G83C A98G C123G C129A A147C,≤ -4.2
2,G50A C57U C85U G128A,≤ -4.2
3,C51U A60G C85A,-3.39
4,A49C U56A G83U G112A A120C,≤ -4.2
5,A49C U101G G141U,-1.78
6,A49G G71U,≤ -4.2
7,A49C U56G G65U A73C C87A,≤ -4.2
8,C51U U53G A119U G143C,≤ -4.2
9,C51A C76A,≤ -4.2
10,A49C G71C C72U G83A,≤ -4.2
11,G50C U56A U78A G83A G94U C95A,≤ -4.2
12,G50U C63U A91U,≤ -4.2
13,C51A G70A G80C C96G G124U G136C U148C,≤ -4.2
14,G50U A91G A106G G140C,≤ -4.2
15,G50C G83C A89G,≤ -4.2
16,A49C U77C A89G,≤ -4.2
17,A49U G62U G71U U111G C123G,≤ -4.2
18,C51U U53A G65U G84U C93A C116G U135G,≤ -4.2
19,C51G C57U G83A A110G G152C,≤ -4.2
20,G50C G92A,≤ -4.2
21,G50U C96U C108A G136C,≤ -4.2

row,Variant,polymerase ribozyme fitness (log ratio)
1,C51A A52G A60U G68A C105U A115G G141U,≤ -4.2
2,A49U U101C C116U,-1.49
3,A49G U55A C79U G92U C95A G140A,≤ -4.2
4,G50A A52C U55A G68A G74C U109A C149G,≤ -4.2
5,G50U G59U G83A C103A,≤ -4.2
6,G50C C51U C79U C93G,≤ -4.2
7,G50U U104G G143U,-3.47
8,G50U U102G,-2.92
9,C51U C116U A121C G152U,-3.78
10,G50C C93G U104C,≤ -4.2
11,G50C A64C G80A A120C G128U,≤ -4.2
12,A49C G86U,≤ -4.2
13,C51U C76G C87U A137C C149A,≤ -4.2
14,G50A A91U,≤ -4.2
15,A49U A52C C69A C85U C114U A115U C131A G141U,≤ -4.2
16,C51U A89U C95A A122G G126C C149U,≤ -4.2
17,C51U G58C C87U U111G C118U,≤ -4.2
18,G50U G94A U102C C103U,-3.63
19,G50U G86A,-2.57
20,G50U G86U,-1.71
